Experimental data from ChEMBL document CHEMBL4888484, “Replenishing the malaria drug discovery pipeline: Screening and hit evaluation of the MMV Hit Generation Library 1 (HGL1) against asexual blood stage Plasmodium falciparum ,using a nano luciferase reporter read-out” (2022).
Several values for one entry are separate records, joined by “and”; a condition that tells them apart may be missing. Equal values may be shown once. The campaign covered roughly 150,000 compounds. About 540 (0.36%) showed an effect of 50% or more. The list shows a part of the results.

System: Plasmodium falciparum
Assay: Primary screen in NF54 nanoGlo assay, in single point, at 2uM, 72h; a lower Z score goes with more inhibition
Format: functional, Erythrocyte
Conditions: timepoint 72 hour

| Compound | % Inhibition [%] | Z score | % Inhibition (2 µM) |
| --- | --- | --- | --- |
| COc1ccc(S(=O)(=O)N2CCC[C@H]2c2noc(COc3ccc(C)cc3)n2)cc1 | 5 | -0.7 | – |
| CC1CC1NC(=O)CC1CCCCC(=O)N1 (configuration not stated) | -11 | 2.27 | – |
| Cn1cc(C(=O)N2CC[C@](C)(C(=O)O)C2)c2ccccc21 | -6 | 0.52 | – |
| N#Cc1nn(Cc2csc(COc3ccc(Cl)cc3)n2)c2ccccc12 | -4 | 0.46 | – |
| O=C1C2CCCCC2C(=O)N1c1ccn(Cc2cccc(F)c2)n1 (configuration not stated) | 1 | -0.14 | – |
| O=C(c1coc(CN2CCN(Cc3ccc(F)c(F)c3)CC2)n1)N1CCN(c2ccccc2)CC1 | -10 | 1.19 | – |
| CCNC(=O)NC1CN(CCc2scnc2C)C[C@@H]1OC (some centres not stated) | -8 | 0.66 | – |
| CCOc1cccc(CN(C(=O)OC(C)(C)C)C2CCC(C(=O)N3CCO[C@@H](COCc4ccccc4F)C3)CC2)c1 (some centres not stated) | 1 | -0.14 | – |
| OC1(Cc2nc(Cc3cc(Br)ccc3F)no2)CCC1 | -1 | 0.11 | – |
| O=C(c1ncccc1Br)N1CCOC2CCCCC21 (configuration not stated) | 2 | -0.27 | – |
| Cc1c[nH]c(C(=O)N2C[C@@H](CN3C[C@@H](C)O[C@@H](C)C3)[C@@H](CO)C2)c1 | -9 | 1.62 | – |
| CC[C@H]1c2ccccc2CN1C(=O)Cn1ccc(=O)[nH]c1=O | -10 | 1.36 | – |
| O=C(c1cccc(F)c1F)N1CCc2[nH]c(-c3ccc(F)cc3F)nc2C1 | -7 | 1.31 | – |
| CNC(=O)CCN(C)C(=O)c1coc(-c2ccnc(C)c2)n1 | -14 | 2.45 | – |
| Cc1ccc2c(Nc3ccc(Br)cc3)c(C(=O)N3CCC(C)CC3)cnc2n1 | -4 | 0.55 | – |
| CCC(C)NC(=O)C(NC(=O)c1cccc(OC)c1)C1CCN(S(=O)(=O)c2ccc(C)cc2)CC1 (configuration not stated) | 2 | -0.47 | – |
| Cc1cc([C@@H](C#N)c2ccc(Cl)cc2)c(Cl)cc1NC(=O)c1ccccc1 | -5 | 0.99 | – |
| COc1ccnc(N[C@H]2CCCCN(C(=O)C3CCCC3)C2)n1 | -11 | 1.4 | – |
| Cc1nn2c(NC(=O)[C@]3(C)CCCO3)csc2nc1=O | -9 | 1.77 | – |
| C[C@H](NCCn1cccn1)C(=O)N1CCCCC1 | 3 | -0.33 | – |
| CN(C(=O)CN1CCC[C@H]1c1nnc2ccccn12)c1ccccc1 | 1 | -0.16 | – |

| Compound | % Inhibition [%] | Z score | % Inhibition (2 µM) |
| --- | --- | --- | --- |
| C=CC[C@]1(C(=O)O)CCCN(Cc2c(C)nn(CC)c2C)C1 | -6 | 1 | – |
| COc1ccccc1NC(=O)CC(F)(F)F | -6 | 0.85 | – |
| CCc1nc([C@H](C)NC(=O)Nc2ncnn2C)cs1 | 7 | -1.01 | – |
| O=C(NS(=O)(=O)Cc1cccc2ncccc12)[C@H]1CC[C@H](c2ccccc2)C1 | 2 | -0.21 | – |
| Fc1cc(-c2ccco2)ccc1NC1CCOCC1 | 4 | -0.65 | – |
| Cc1ccc(C(=O)N(C)c2ccc3c(c2)CCO3)cc1N | -7 | 0.98 | – |
| O=C(O)CCC(=O)NC1=NN2C(=NC(c3ccccc3)=C[C@H]2c2ccc(Cl)cc2)N1 | -39 | 4.56 | – |
| CC[C@@H](CO)N(Cc1ccsc1)Cc1cc(C(C)(C)C)[nH]n1 | 3 | -0.39 | – |
| CN(C)c1ccc(CNC(=O)c2cccc(-n3cnnn3)c2)cc1F | -3 | 0.59 | – |
| COc1ccccc1/C=C/CN1C[C@H]2CC[C@@H](C1)NC2 | -1 | 0.1 | – |
| CN=C(NOCc1ccccc1)c1nonc1N | -8 | 1.44 | – |
| Cn1ncnc1NC(=O)c1c(O)cccc1F | -9 | 1.63 | – |
| Cc1cccc(NC(=O)C(C)N2CCC3OCCCC3C2)c1C (configuration not stated) | -12 | 1.27 | – |
| CCOC1CC(NC(=O)N2CCC3(CCOC3)C2)C12CCC2 (configuration not stated) | -6 | 0.95 | – |
| COC(=O)N1CC(NC(=O)N(C)c2ccc(F)cc2)C1 | -12 | 1.53 | – |
| Cc1noc([C@H](C)NC(=O)c2cccn2C2CC2)n1 | -9 | 1.12 | – |
| C[C@H](NS(=O)(=O)c1ccc2c(c1)OCCCO2)C(=O)NC1CCCCCC1 | -6 | 0.83 | – |
| Cc1ccccc1S(=O)(=O)N(CCC(=O)N1CCNCC1)CCC(C)C | 0 | -0.08 | – |
| O=C(CCc1c[nH]c2ccccc12)N1CCC[C@H]1c1nnc2ccccn12 | -6 | 1.06 | – |
| Cc1cc(C)n2ncc(CN3CC[C@H](c4sccc4C)[C@@H](O)C3)c2n1 | -1 | 0.17 | – |
| Cc1cc(C(=O)NC[C@@](C)(O)Cc2ccco2)c(C)o1 | -2 | 0.22 | – |

| Compound | % Inhibition [%] | Z score | % Inhibition (2 µM) |
| --- | --- | --- | --- |
| Cc1cccc(-c2nc3cc4sc(-c5cccc(C)c5)nc4cc3s2)c1 | -3 | 0.36 | – |
| Cc1nc(CNC(=O)C(=O)Nc2ccc3[nH]ncc3c2)cs1 | -11 | 1.72 | – |
| c1cc(C2CN(c3cc(N4CCOCC4)ncn3)C2)ccn1 | -8 | 1.02 | – |
| Cc1cccc(Oc2c(CCC(=O)NCc3cccnc3)c(C)nn2-c2ccccc2C)c1 | -15 | 2.91 | – |
| Cc1nn(C)c2nc(-c3ccncc3)nc(N3CCC[C@H](C(N)=O)C3)c12 | -10 | 1.73 | – |
| Cc1cccc(C)c1NCC(=O)N1CCC(C(=O)NC2CC2)CC1 | 6 | -0.78 | – |
| O=C(OCC(=O)N1CCCCCC1)c1cnn(-c2ccncc2)c1C(F)F | -10 | 1.86 | – |
| Cc1cnc(CN2CCO[C@H](c3nc(C(C)C)n[nH]3)C2)o1 | -1 | 0.05 | – |
| COc1cnc(C2(NC(=O)CC[C@H]3CCCO3)CCCC2)[nH]c1=O | -8 | 0.86 | – |
| COC(=O)C[C@H](NC(=O)Cc1cccc(C)c1)C1CC1 | -10 | 1.97 | – |
| c1ccc(-c2nnn[nH]2)c(NCc2ccc3c(c2)OCO3)c1 | -10 | 1.2 | – |
| O=C(Nc1n[nH]c(Cc2cccc(F)c2)n1)[C@@H]1CCCO1 | -10 | 1.03 | – |
| O=S(=O)(Nc1ccccc1)c1ccc(-c2nnc(C3CCC3)o2)s1 | 6 | -1.18 | – |
| O=C(O)c1cnc(N2CCC[C@H]2c2ncc[nH]2)c(Cl)c1 | -10 | 1.27 | – |
| NC(=O)c1ncc(NC(=O)[C@H]2CC2(Cl)Cl)s1 | -15 | 2.38 | – |
| CN(Cc1ccco1)C(=O)c1ccc2nccnc2c1 | -6 | 0.7 | – |
| Cc1ccc(S(=O)(=O)N2CCN(C(=O)c3cscn3)[C@@H](C)C2)o1 | -9 | 1.2 | – |
| Cc1ccc(S(=O)(=O)Nc2ccc3c(c2)COC3=O)c(C)c1 | -6 | 0.9 | – |
| COC(=O)N1CCN(C(=O)CCc2scnc2C)CC1 | -17 | 3.3 | – |
| FC(F)(c1nc(-c2cscn2)no1)C1CCOCC1 | -6 | 1.13 | – |
| Cc1ccc(Cc2ccccc2C(=O)N(CCO)Cc2cccs2)cc1 | 13 | -2.8 | – |

| Compound | % Inhibition [%] | Z score | % Inhibition (2 µM) |
| --- | --- | --- | --- |
| Cc1cnc(C(=O)N2CC3(C[C@@H](c4nc(-c5cccnc5)no4)N(C)C3)C2)cn1 | 5 | -0.59 | – |
| CN(C)[C@@H]1C[C@@H](O)[C@H](CO)[C@H]1Cc1ccnc(-c2ccccc2F)n1 | 4 | -0.52 | – |
| CC(C)c1ccc(N2C(=O)N[C@@H](CC(=O)N3CCN(S(=O)(=O)C(C)C)CC3)C2=O)cc1 | – | – | -2% and -6% |
| COc1cc(CN2CC[C@@]3(CCCNC3)C2)ccc1F | -18 | 2.28 | – |
| N#Cc1ccc(F)c(COC(=O)c2cc(S(=O)(=O)N3CCCC3)c[nH]2)c1 | -7 | 0.97 | – |
| N#CCN(C(=O)CCCc1c[nH]c2ccccc12)C1CC1 | -16 | 2.67 | – |
| C#CCN(C)S(=O)(=O)C1Cc2ccccc2C1 | -7 | 0.95 | – |
| CC12CCN(C(=O)Cc3ccnc(O)c3Br)CC1C2(F)F (configuration not stated) | -2 | 0.27 | – |
| COc1ccc(CCN2C(=O)[C@H]3[C@@H](C2=O)[C@]2(C(=O)Nc4ccccc42)N2CCC[C@@H]32)cc1OC | -9 | 1.22 | – |
| O=C1CC[C@H](C(=O)Nc2cnn(-c3cccc(C(F)(F)F)c3)c2)N1 | -8 | 1.06 | – |
| CCCN1CCC(N2CCN(S(=O)(=O)c3ccc(Cl)cc3)CC2)CC1 | -12 | 1.79 | – |
| C=CCn1c(=O)c2sc(N3CCCCC3)nc2n(CC(=O)Nc2cc(Cl)ccc2C)c1=O | -43 | 3.8 | – |
| CN(CCN1CCCCC1)c1cccc(C#N)n1 | 1 | -0.14 | – |
| O=C1[C@@H]2C[C@@H](CN2CC2CCCCC2)N1c1ccccc1Cl | -3 | 0.46 | – |
| CCOC1(CNC(=O)N[C@H]2CCn3ccnc32)CCCC1 | 2 | -0.34 | – |
| Cn1cc(-c2ccc(C3(C#N)CCCC3)cc2)cn1 | -7 | 0.96 | – |
| COc1ccc2cc3n(c2c1)C[C@](C(=O)NC1CCCCCC1)(c1ccccc1)N(Cc1ccccc1F)C3=O | 38 | -5.47 | – |
| COc1ccccc1N(CCn1cc(C#N)cn1)S(=O)(=O)c1ccc(F)cc1 | -6 | 0.71 | – |
| CCN(CC)C[C@H](O)COc1cc(CN2CCC3(CCCC3)C2)ccc1OC | 4 | -0.57 | – |
| COc1ccccc1C(C)(C)Cn1nnnc1N1CCC(CO)CC1 | -22 | 2.46 | – |
| CCOc1ccc(CNC(=O)c2nccn2Cc2ccc(Cl)cc2)cc1 | -12 | 2.2 | – |
